Structures can show the parent of a compound that is named as a salt. ± gives the standard deviation of the averaged measurements. Over roughly 1,900 compounds, “normalised cell viability (NPI; 0 = phenylarsine oxide control, 1 = DMSO control)” has its median near 1; the lowest 2% begin near 0.039. This is one part of the list.
System: NCI-H1944
Assay: normalised cell viability (NPI; 0 = phenylarsine oxide control, 1 = DMSO control) (fraction of DMSO control); NCI-H1944 is a non-small cell lung cancer line; higher = more viable cells (less compound toxicity)
Conditions: 6 days
[1] = glucocorticoid arm: hydrocortisone 2.75 uM co-treatment, compound 1 µM
[2] = glucocorticoid arm: hydrocortisone 2.75 uM co-treatment, compound 5 µM
[3] = glucocorticoid arm: hydrocortisone 2.75 uM pre-treated 2 days and continued, compound 1 µM
[4] = glucocorticoid arm: hydrocortisone 2.75 uM pre-treated 2 days and continued, compound 5 µM
[5] = glucocorticoid arm: vehicle, compound 1 µM
[6] = glucocorticoid arm: vehicle, compound 5 µM
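Also: CTB read-out in 384-well plates, mean of triplicate wells, normalised per plate against 1 µM phenylarsine oxide and 0.1% DMSO, compounds added 24 h after seeding.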

| SMILES | normalised cell viability [1] | normalised cell viability [2] | normalised cell viability [3] | normalised cell viability [4] | normalised cell viability [5] | normalised cell viability [6] |
| --- | --- | --- | --- | --- | --- | --- |
| Nc1nc(N)c2nc(CNc3ccc(C(=O)N[C@@H](CCC(=O)O)C(=O)O)cc3)cnc2n1 [Aminopterin] | 0.983 ± 0.0095 | 0.764 ± 0.031 | 0.981 ± 0.012 | 0.985 ± 0.013 | 0.984 ± 0.0095 | 0.514 ± 0.016 |
| CCCCN(Cc1ccc(C(=O)NO)cc1)C(=O)Nc1ccccc1 [Nexturastat A] | 0.949 ± 0.017 | 0.9863 ± 0.0097 | 0.97 ± 0.02 | 0.963 ± 0.027 | 1.001 ± 0.009 | 0.967 ± 0.014 |
| COC(=O)N[C@H](C(=O)N1CCC[C@H]1c1ncc(-c2ccc(-c3ccc(-c4cnc([C@@H]5CCCN5C(=O)[C@@H](NC(=O)OC)C(C)C)[nH]4)cc3)cc2)[nH]1)C(C)C | 1.03 ± 0.015 | 1.073 ± 0.0058 | 1.01 ± 0.015 | 1.08 ± 0.021 | 1.03 ± 0.029 | 0.972 ± 0.011 |
| O=C1O/C(=C/Br)CCC1c1cccc2ccccc12 (stereo not given) [Bromoenol lactone] | 1.02 | 1.02 ± 0.026 | 1.01 ± 0.01 | 1.02 | 0.998 ± 0.013 | 1.01 |
| CNC(=O)c1ccccc1Nc1nc(Nc2ccc(N3CCOCC3)cc2OC)ncc1Cl | 0.439 ± 0.055 | 0.291 ± 0.0087 | 0.548 ± 0.016 | 0.414 ± 0.0046 | 0.489 ± 0.038 | 0.154 ± 0.017 |
| CC1=C(C(=O)Nc2cc3cn[nH]c3cc2F)C(c2ccc(C(F)(F)F)cc2)CC(=O)N1 (stereo not given) | 0.9897 ± 0.0067 | 0.9623 ± 0.009 | 0.966 ± 0.018 | 0.99 ± 0.019 | 0.9947 ± 0.0021 | 1 ± 0.0087 |
| CC[C@H](NC(=O)c1c(C)c(-c2ccccc2)nc2ccccc12)c1ccccc1 | 1.007 ± 0.0058 | 1.023 ± 0.0058 | 1.005 ± 0.0081 | 1.004 ± 0.0085 | 0.99 ± 0.0027 | 0.987 ± 0.012 |
| N/C(=N\C(=O)c1nc(Cl)c(N)nc1N)NCc1ccc(Cl)c(Cl)c1 [3',4'-Dichlorobenzamil hydrochloride] | 0.99 ± 0.0089 | 0.0646 ± 0.03 | 0.998 ± 0.013 | 0.862 ± 0.014 | 0.98667 ± 0.00058 | 0.0118 ± 0.0064 |
| NCC(O)(CS(=O)(=O)O)c1ccc(Cl)cc1 (stereo not given) [2-Hydroxysaclofen] | 0.9957 ± 0.004 | 1.01 ± 0.014 | 0.994 ± 0.011 | 0.995 ± 0.022 | 0.992 ± 0.011 | 1.01 ± 0.013 |
| OCCN1CCN(CCCN2c3ccccc3C=Cc3ccccc32)CC1 [Opipramol dihydrochloride] | 0.97 ± 0.023 | 0.95 ± 0.019 | 0.98 ± 0.019 | 0.995 ± 0.0071 | 1.01 ± 0.011 | 1.01 ± 0.011 |
| O=C(O)C=C1CCCc2ccccc2C1O (stereo not given) | 0.987 ± 0.012 | 0.948 ± 0.026 | 0.987 ± 0.02 | 0.994 ± 0.044 | 0.983 ± 0.0069 | 0.987 ± 0.01 |
| CC(=O)CCCCn1c(=O)c2c(ncn2C)n(C)c1=O [Pentoxifylline] | 0.999 ± 0.011 | 1.01 ± 0.031 | 1.01 | 0.855 ± 0.26 | 0.995 ± 0.002 | 0.997 ± 0.012 |
| O=c1c(-c2ccc(O)cc2)coc2cc(O)ccc12 [Daidzein] | 0.99 ± 0.018 | 0.995 ± 0.014 | 1 ± 0.014 | 0.9963 ± 0.0011 | 0.98333 ± 0.00058 | 0.9877 ± 0.0042 |
| CC(C)NC[C@H](O)COc1cccc2ccccc12 [(S)-(-)-Propranolol hydrochloride] | 1.003 ± 0.0058 | 0.989 ± 0.007 | 1.02 ± 0.023 | 1.04 ± 0.021 | 0.9957 ± 0.0025 | 0.992 ± 0.0072 |
| C[C@H]1O[C@@H](n2cc(F)c(=O)[nH]c2=O)[C@H](O)[C@@H]1O [5-fluoro-5'-deoxyuridine] | 0.9947 ± 0.0092 | 0.719 ± 0.019 | 0.988 ± 0.013 | 0.998 ± 0.02 | 0.9893 ± 0.0065 | 0.728 ± 0.017 |
| CC(C)(C)c1nc(-c2cccc(NS(=O)(=O)c3c(F)cccc3F)c2F)c(-c2ccnc(N)n2)s1 [Dabrafenib Mesylate] | 1.09 | 0.629 ± 0.036 | 1.073 ± 0.0058 | 0.983 ± 0.018 | 0.97 ± 0.0087 | 0.157 ± 0.0076 |
| CC(C)(C)c1nc(-c2cccc(NS(=O)(=O)c3c(F)cccc3F)c2F)c(-c2ccnc(N)n2)s1 | 1.09 ± 0.011 | 1.1 ± 0.035 | 1.09 ± 0.01 | 1.1 ± 0.023 | 1.017 ± 0.0058 | 0.9963 ± 0.0063 |
| Clc1ccc(C(c2ccc(Cl)cc2)[n+]2ccn(CC(OCc3ccc(Cl)cc3Cl)c3ccc(Cl)cc3Cl)c2)cc1 (stereo not given) [Calmidazolium chloride] | 0.974 ± 0.035 | 0.00138 ± 0.00076 | 0.993 ± 0.012 | -0.000224 ± 0.0015 | 1.002 ± 0.0072 | 0.00119 ± 0.00017 |
| COC(=O)c1c(-c2cc(OC)c(OC)c(OC)c2)c2ccc(OCc3ccccn3)cc2c(=O)n1-c1ccc(N)cc1 | 1.01 ± 0.01 | 1.04 ± 0.015 | 1.02 ± 0.015 | 1.027 ± 0.0058 | 1.027 ± 0.0058 | 1.017 ± 0.0058 |
| CS(=O)(=O)c1ccc(-c2cnc(N)c(C(=O)Nc3ccccc3)n2)cc1 | 1.02 ± 0.017 | 1.03 ± 0.026 | 0.9917 ± 0.006 | 1.01 ± 0.03 | 0.99 ± 0.044 | 0.965 ± 0.0098 |
| Cc1cc(Cl)ccc1OCCCC(=O)NO [Droxinostat] | 0.983 ± 0.015 | 0.976 ± 0.02 | 0.97 ± 0.011 | 0.9983 ± 0.0029 | 0.986 ± 0.013 | 0.981 ± 0.0062 |
| CN(C)CCOc1ccc(-c2nc(-c3ccncc3)c(-c3ccc4c(c3)CC/C4=N\O)[nH]2)cc1 | 1.103 ± 0.0058 | 1.16 ± 0.032 | 1.07 ± 0.011 | 1.11 ± 0.021 | 1.013 ± 0.0058 | 1 ± 0.05 |
| C[C@H](Cc1cc2c(c(C(N)=O)c1)N(CCCO)CC2)NCCOc1ccccc1OCC(F)(F)F [Silodosin] | 1.01 ± 0.011 | 1.01 ± 0.022 | 1.01 ± 0.011 | 1.01 ± 0.026 | 1.003 ± 0.0061 | 0.9977 ± 0.004 |
| CNCCCC12CCC(c3ccccc31)c1ccccc12 [Maprotiline hydrochloride] | 1 ± 0.0087 | 1.04 ± 0.029 | 1.017 ± 0.0058 | 1.06 ± 0.084 | 0.99 ± 0.0066 | 0.9997 ± 0.0091 |
| CNCCCC12CCC(c3ccccc31)c1ccccc12 [Maprotiline HCl] | 1.01 ± 0.016 | 0.987 ± 0.016 | 1.02 ± 0.015 | 0.99 ± 0.026 | 1.002 ± 0.0076 | 0.968 ± 0.01 |
